Where “and” joins values, the source holds several entries; their conditions need not be identical. Identical values can stand only once. In all, about 420,000 compounds went through this assay and about 64,000 (15%) were called active. Inconclusive results, whose numbers are uncertain, are shown with a selection of clear calls. Calls follow the shape of the dose curve; as a rule, active = well fitted inhibition curve with a large enough effect; inconclusive = small, poorly fitted or top-dose-only effect; inactive = flat fitted curve, though single readings scatter. No potency is given beside an inconclusive call; the fits are too rough.
Test: qHTS for Inhibitors of human tyrosyl-DNA phosphodiesterase 1 (TDP1): qHTS in cells in absence of CPT; also: nearly all actives have a fitted effect of over 55% in size
Settings: DT40 Tdp1-/- hTDP1 cells, no CPT, ATP luminescence, 48 h; activity change, negative = growth inhibition: at 46.2 µM (top of the series) unless noted
Summary of the method: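 Growth kinetics read by CellTiter-Glo luminescence after ≥48 hr at 37 °C. Cells: DT40 Tdp1-/- stably carrying human TDP1, 400 per well, compound exposure in the absence of CPT (DMSO vehicle).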
With `COc1ccc(CN2C(=O)C(CC(=O)NC3CCCC3)CC(C(=O)N(C)C)=C2C)cc1` (centres undefined) the “activity change, negative = growth inhibition” value was inactive: -10.3%. For `CCC(CC)COC(=O)C1=C(C)NC(=O)NC1c1cccc([N+](=O)[O-])c1` (centres undefined), the Potency was inconclusive [inhibitor, partial curve, poor fit]. In the case of `O=C(NCCN1CCN(c2ccccc2)CC1)Nc1cccc(Br)c1`, the Potency was active: 16.4 µM and active: 29.1 µM. With `CCc1cc(C(=O)c2ccccc2)c(N)s1` the Potency was inconclusive [inhibitor, single point]. In the case of `Cc1ccc(NC(=O)C2CCN(S(=O)(=O)c3c(C)noc3C)CC2)cc1`, the “activity change, negative = growth inhibition” value was inactive: -20.3%. For `CCOC(=O)CC(=O)CSc1nc(-c2ccccc2)cc(-c2ccccc2)c1C#N`, the “activity change, negative = growth inhibition” value was inactive: -7.96%. With `O=C1OCCN1C(=O)[C@H]1[C@H](c2ccc([N+](=O)[O-])cc2)C(c2ccc(F)cc2)=NN1c1ccc(Br)cc1` the Potency was active: 14.6 µM. With `COc1ccc(S(=O)(=O)NCC2CCCN(C(=O)CC3CCCC3)C2)cc1` (centres undefined) the Potency was inconclusive [inhibitor, single point]. For `CCCCCC(=O)N1CCN(S(=O)(=O)c2ccc3c(c2)OCCCO3)CC1`, the “activity change, negative = growth inhibition” value was inactive: -29%. For `O=C(c1cc(Cl)cc(Cl)c1)N1CCN(c2cc(C(F)(F)F)nc3ccccc23)CC1`, the Potency was active: 11.6 µM. For `CN(C)S(=O)(=O)c1cccc(-c2csc(=Nc3ccccc3)n2CCCN2CCOCC2)c1`, the Potency was inconclusive [inhibitor, single point]. In the case of `COc1ccc(NC(=O)C[C@H]2C(=O)N(c3ccc(Br)cc3)C[C@@H]2CSC)cc1`, the Potency was active: 23.1 µM. With `Fc1cccc(/C=C2\CCCC3=C2NC(=S)NC3c2cccc(F)c2)c1` (centres undefined) the Potency was active: 20.6 µM. In the case of `Cc1ccc(N2CCN(S(=O)(=O)c3ccc4oc(=O)ccc4c3)CC2)c(C)c1`, the Potency was inconclusive [inhibitor, single point]. In the case of `Cc1ccc(CSc2nc3ccccc3c(=O)n2CCCC(=O)NCc2ccco2)cc1`, the Potency was active: 11.6 µM. In the case of `Cc1ccc(-n2ncc3c(SCc4ccccn4)ncnc32)c(C)c1`, the Potency was active: 16.4 µM. For `Cc1cc(OCC(=O)Nc2ccc(S(=O)(=O)N3CCN(C)CC3)cc2)ccc1Cl`, the Potency was inconclusive [inhibitor, single point]. For `CCOc1ccc(NC(=O)CSc2nc3ccsc3c(=O)n2C(C)CC)cc1` (centres undefined), the Potency was active: 10.3 µM. In the case of `O=C1C(O)=C(O)C(=O)c2ccccc21`, the Potency was inconclusive [inhibitor, single point]. For `COc1ccc(N2CCN(CCNC(=O)Nc3ccc(C)cc3Cl)CC2)cc1`, the Potency was inconclusive [inhibitor, single point]. With `Cc1cc(C)nc(SCC(=O)N/N=C/c2cc(C)n(-c3ccccc3C)c2C)n1` the Potency was inconclusive [inhibitor, single point]. For `Cc1ccc(NS(=O)(=O)c2ccc(-c3cnc(C4CC4)o3)cc2)c(C)c1`, the Potency was active: 1.03 µM. For `COc1ccc(Nc2nc(-c3cccc(Cl)c3)c3c(n2)-c2ccccc2OC3)cc1`, the Potency was inconclusive [inhibitor, single point]. For `CC(C)CN(CC(C)C)C(=O)COc1ccccc1C(N)=O`, the Potency was active: 11.6 µM. For `O=C(COc1cccc(NC(=O)c2cccs2)c1)c1ccc(F)cc1`, the Potency was inconclusive [inhibitor, single point]. In the case of `COc1ccc(-c2cc(C(F)(F)F)c3c(N)c(C(=O)NCCSC)sc3n2)cc1`, the Potency was inconclusive [inhibitor, partial curve, poor fit]. For `COc1ccc(S(=O)(=O)Nc2ccccc2OC)cc1NC(=O)CC1CC2CCC1C2` (centres undefined), the Potency was active: 16.4 µM. For `O=C(CCNS(=O)(=O)c1ccc(Cl)cc1)N1CCCCCC1`, the “activity change, negative = growth inhibition” value was inactive: -21.8%. With `Cc1ccc(SCCN2CCN(C)CC2)cc1` the “activity change, negative = growth inhibition” value was inactive: 17.6%. With `Cc1ccccc1CN(c1ccc(C(=O)NCc2cccnc2)cc1)S(C)(=O)=O` the “activity change, negative = growth inhibition” value was inactive: -13.2%. In the case of `Cc1cccc2c1cnn2C(=O)CCC(=O)NCc1ccc(F)cc1`, the “activity change, negative = growth inhibition” value was inactive: -0.368%. With `C/C(Cn1nnc([N+](=O)[O-])n1)=N\NC(=O)c1ccc(O)cc1O` the Potency was inconclusive [inhibitor, single point]. For `O=[N+]([O-])c1ccccc1S(=O)(=O)N1CCN(Cc2ccccc2)CC1`, the Potency was inconclusive [inhibitor, single point]. For `NC(=O)CC(NC(=O)c1ccc(Br)cc1)c1ccc(NCCc2ccc(F)cc2)c([N+](=O)[O-])c1` (centres undefined), the Potency was inconclusive [inhibitor, partial curve]. In the case of `O=C1OC(c2ccccc2)(c2cc(Br)ccc2O)c2ccccc21` (centres undefined), the Potency was inconclusive [inhibitor, single point]. With `CCc1ccc2c(c1)C(C)=CC(C)(C)N2` the Potency was inconclusive [inhibitor, single point]. With `Cn1c2c(c(=O)n(C)c1=O)C1c3cc(Cl)ccc3OCC1CO2` (centres undefined) the “activity change, negative = growth inhibition” value was inactive: -0.721%. In the case of `CCCCNS(=O)(=O)c1ccc2nc(-c3cccnc3)cc(C(=O)NCCCOC(C)C)c2c1`, the Potency was inconclusive [inhibitor, single point]. For `Cc1ccc(/C=C/C(=O)Nc2ccccc2C(N)=O)cc1`, the Potency was inconclusive [inhibitor, single point]. With `COc1ccc(C=O)cc1CN1CCCN(Cc2ccc(Cl)cc2)S1(=O)=O` the activity change, negative = growth inhibition was inconclusive: -30.6% [inhibitor]. In the case of `CC(=O)c1cccc(OCC(O)CNCCc2ccc(Cl)cc2)c1` (centres undefined), the “activity change, negative = growth inhibition” value was inactive: -14.7%. With `O=C(Nc1ncc(Cc2ccccc2)s1)C1CCN(C(=O)c2ccco2)CC1` the Potency was inconclusive [inhibitor, single point]. For `Cc1noc(C)c1CSc1nnc(-c2c[nH]c3ccccc23)n1-c1ccc(Cl)cc1`, the Potency was inconclusive [inhibitor, full curve]. For `Cc1cccc2c1-c1sc(C(=O)N3CCN(c4ccccc4)CC3)cc1CO2`, the Potency was active: 16.4 µM. With `CC1=C(C(=O)N2CCOCC2)CC(CC(=O)NC(c2ccccc2)c2ccccc2)C(=O)N1CCC1=CCCCC1` (centres undefined) the Potency was inconclusive [inhibitor, single point]. In the case of `COc1ccc(-c2noc(N3CCC(C(=O)N4CCN(c5ccccc5OC)CC4)CC3)n2)cc1`, the Potency was active: 8.2 µM. For `CCCCn1c(=O)c(CCC(=O)OCC(=O)NCc2ccc(OC)c(OC)c2)nc2ccccc21`, the “activity change, negative = growth inhibition” value was inactive: -3.16%. For `CC(=O)c1ccc(OCC(=O)Nc2ccc3c(c2)OCO3)cc1`, the Potency was inconclusive [inhibitor, single point]. For `CCOC(=O)c1cnc2c(C)c(Cl)ccc2c1NCCc1ccc(OC)c(OC)c1`, the Potency was active: 16.4 µM. With `COc1cccc(C(=O)CN2C(=O)C(C)(C)Oc3ccc(C(=O)N4CCCCCC4)cc32)c1` the activity change, negative = growth inhibition was inconclusive: -30.1% [inhibitor]. For `O=C1c2ccccc2C(Nc2ccc3c(c2)OCCO3)N1Cc1ccc2c(c1)OCO2` (centres undefined), the Potency was inconclusive [inhibitor, single point]. For `COc1ccc(C(=O)NCCN2CCOCC2)c(OC)c1OC`, the “activity change, negative = growth inhibition” value was inactive: -1.06%. For `O=C(Nc1ccccc1N1CCOCC1)C1=NN(c2ccccc2)C(=O)CC1`, the Potency was inconclusive [inhibitor, partial curve]. For `Cc1ccc(NC(=S)NNC(=O)Nc2ccccc2)cc1`, the Potency was inconclusive [inhibitor, single point]. With `O=C(CN1CCN(c2ccccc2)CC1)NC(=O)NCc1ccco1` the “activity change, negative = growth inhibition” value was inactive: -20.3%. For `CCOc1cccc(Nc2nn(-c3ccc(OC(F)(F)F)cc3)nc2C(C)=O)c1`, the “activity change, negative = growth inhibition” value was inactive: -9.89%. With `O=C(Nc1ccc([N+](=O)[O-])cc1)/C(=C/c1cccc([N+](=O)[O-])c1)NC(=O)C1CCCCC1` the Potency was inconclusive [inhibitor, single point]. With `CC1CN(c2nc3c(c(=O)n(C)c(=O)n3C)n2Cc2c(F)cccc2Cl)CC(C)O1` (centres undefined) the Potency was inconclusive [inhibitor, full curve, poor fit]. For `COc1ccc(N(C)C(=O)CN(C)S(=O)(=O)c2ccc3c(c2)c(=O)n(C)c(=O)n3C)c(OC)c1`, the Potency was inconclusive [inhibitor, partial curve]. In the case of `Cc1noc(C)c1CSc1ncnc2sc3c(c12)CCCCC3`, the Potency was inconclusive [inhibitor, partial curve, poor fit]. With `COc1cc(C(=O)NNc2nc3cc4c(cc3s2)OCO4)cc(OC)c1OC` the Potency was inconclusive [inhibitor, single point]. For `O=C(Nc1cc(S(=O)(=O)Nc2ccccc2F)ccc1Cl)c1ccc(F)cc1F`, the Potency was inconclusive [inhibitor, single point]. For `CCOC(=O)c1ccc(NC(=O)C2CC(=O)NC(=Nc3ccc(C)c(C)c3)S2)cc1` (centres undefined), the Potency was inconclusive [inhibitor, single point]. For `COc1cc(C(=O)N2CCCCC2)ccc1OCC(=O)Nc1ccc(F)cc1`, the Potency was inconclusive [inhibitor, single point]. With `Cc1cccc(Nc2sc(C(=O)c3cc4cc(Cl)ccc4o3)c(N)c2C#N)c1` the “activity change, negative = growth inhibition” value was inactive: 3.45%. With `COc1ccccc1CNC(=O)Cn1c(=O)oc2cc(S(=O)(=O)N3CCCC3)ccc21` the Potency was active: 29.1 µM. With `COc1ccccc1N1CCN(CCS(=O)(=O)c2cc(Cl)ccc2Cl)CC1` the Potency was inconclusive [inhibitor, single point]. For `Cc1ccc(N(CC(=O)NCCc2ccccc2C)S(=O)(=O)N(C)C)cc1`, the Potency was inconclusive [inhibitor, partial curve]. With `COc1ccc(-n2nc(C(=O)NCC(=O)N(C)Cc3ccccc3)c3ccccc3c2=O)cc1` the Potency was inconclusive [inhibitor, single point].
% is scaled to controls: 0 for no effect and ±100 for the full control effect; potency is read from the fitted curve at half-maximal effect; tags tell the direction and shape of the fitted curve.
